Source: the supplement of paper PMC10600219
Structures can show the parent of a compound that is named as a salt. ± gives the standard deviation of the averaged measurements. The full ranking holds about 2,800 compounds; the median of “cell viability relative to vehicle” is about 1.1, and the lowest 2% start at about 0.19. The list shows a part of the results.

tested on: NCI-H2228 parental; experiment: cell viability relative to vehicle (fraction of vehicle); NCI-H2228 is an ALK-positive lung cancer line and DTP means drug-tolerant persister; higher = less growth inhibition; settings: 100 nM; treatment time 6 days
Method in brief: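 Drug-tolerant persister NCI-H2228 cells, produced by 13 days in 1000 nM of a targeted drug, and their parental counterparts were seeded into 384-well plates and, the following day, given the 3114-agent TargetMol anti-cancer compound library at 100 nM or DMSO vehicle. After 6 days, the CellTiter-Glo 3D Cell Viability Assay was used to read ATP. Each entry reports viability compared with vehicle-treated cells.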

SMILES | cell viability
C[C@@H]1CC[C@]2(NC1)O[C@H]1C[C@H]3[C@@H]4CC=C5C[C@@H](O)CC[C@]5(C)[C@H]4CC[C@]3(C)[C@H]1[C@@H]2C [Solasodine] | 0.97
Cn1c(COP(=O)(NCCBr)NCCBr)cnc1[N+](=O)[O-] [Evofosfamide] | 1.15
COc1ccc(OC)c(C(O)C(C)N)c1 (configuration not stated) [Methoxamine hydrochloride] | 1.08
Cc1c(N[C@@H](c2nnc(-c3ccc(C#N)cc3)o2)[C@H](C)O)ccc(C#N)c1Cl [Testolone] | 1.2
OC(c1ccccc1)(c1ccccc1)C1CCNCC1 [Ataractan] | 1.15
C[N+]1(C)CCCC(OC(=O)C(O)(c2ccccc2)c2ccccc2)C1 (configuration not stated) [Mepenzolate Bromide] | 0.893
COc1cc(OC)c(OC)cc1C=O [Asarylaldehyde] | 1.22
CCC1(C)CC(=O)NC(=O)C1 [Bemegrid] | 1.32
C/C(O)=C(\C#N)C(=O)Nc1cc(Br)ccc1Br | 1.08
OC1C[C@H]2CC[C@@H](C1)N2 (some centres not stated) [Nortropine] | 0.954
COc1cc([C@@H]2c3cc4c(cc3[C@@H](O)[C@H]3COC(=O)[C@H]23)OCO4)cc(OC)c1O [4'-Demethylepipodophyllotoxin] | 0.402
Cc1ccccc1-n1c(Cn2ncc3c(N)ncnc32)nc2cccc(C)c2c1=O | 1.03
CN(C)C(=O)Oc1ccc[n+](C)c1 [Mestinon] | 1.23
O=c1[nH]c2ccccc2n1C1CCN(CCCC(c2ccc(F)cc2)c2ccc(F)cc2)CC1 [Pimozide] | 1.07
CC(C)NCC(O)c1ccccc1Cl (configuration not stated) [Clorprenaline hydrochloride] | 0.941
CC1=C2C[C@H]3[C@@H](CC=C4C[C@@H](O)CC[C@@]43C)[C@@H]2CC[C@]12O[C@@H]1C[C@H](C)CN[C@H]1[C@H]2C [Cyclopamine] | 1.17
CCCCCCCCC(=O)NCc1ccc(O)c(OC)c1 [Nonivamide] | 0.917
C[C@@H]1C(=O)O[C@H]2[C@H](O)[C@@]34O[C@@H]5OC(=O)[C@H](O)[C@@]56[C@H](C(C)(C)C)[C@H](O)C(OC3=O)[C@]64[C@@]12O (some centres not stated) [Ginkgolide C] | 1.08
CN[C@@H](Cc1c[nH]c2ccccc12)C(=O)O [Abrine] | 1.08
NCCCNCCSP(=O)(O)O [Amifostine] | 0.986
COC1=C[C@]23CCCN2CCc2cc4c(cc2[C@@H]3[C@@H]1O)OCO4 [Cephalotaxine] | 1.13
c1ccc2c(c1)[nH]c1cnccc12 [Norharmane] | 0.982
N#CC(C#N)=Cc1ccc([N+](=O)[O-])c(O)c1 | 1.07
C[C@]12CCC(=O)C(O)=C1CC[C@@H]1[C@@H]2CC[C@]2(C)C(=O)CC[C@@H]12 [Formestane] | 0.959

SMILES | cell viability
CN1[C@@H]2CC[C@H]1C[C@@H](OC(=O)C(CO)c1ccccc1)C2 (some centres not stated) [Atropine] | 1.18
CCOc1ccccc1-n1c(C(C)N2CCN(C(=O)COc3ccc(Cl)cc3)CC2)nc2ccccc2c1=O (configuration not stated) [Erastin] | 1.09
CCC1=C[C@H]2CN3CCc4c([nH]c5ccccc45)[C@](C(=O)OC)(C2)[C@H]13 [Catharanthine] | 1.06
CNCC(O)c1ccc(O)cc1 (configuration not stated) [Synephrine HCl] | 0.912
CNCC(O)c1ccc(O)cc1 (configuration not stated) [Synephrine] | 1.14
Cc1sc2c(c1C)C(c1ccc(Cl)cc1)=N[C@@H](CC(=O)Nc1ccc(O)cc1)c1nnc(C)n1-2 [Birabresib] | 0.922
COc1ccc2[nH]cc(C3=CCNCC3)c2c1 | 1.1
CN(C)C(=O)Oc1cccc([N+](C)(C)C)c1 [Neostigmine bromide] | 1.06
CN(C)C(=O)Oc1cccc([N+](C)(C)C)c1 [Hodostin] | 0.965
CN1[C@H]2C[C@H](OC(=O)[C@H](CO)c3ccccc3)C[C@@H]1[C@@H](O)C2 [Anisodamine] | 1.1
CCN(CC)CCOC(=O)C(O)(c1ccccc1)c1ccccc1 [Benactyzine hydrochloride] | 1.1
CNC(=O)Oc1ccc2c(c1)[C@]1(C)CCN(C)[C@@H]1N2C [Physostigmine Salicylate] | 1.09
Nc1ncnc2c1ccn2[C@@H]1O[C@H](CO)[C@@H](O)[C@H]1O [Tubercidin] | 0.219
COc1ccc(C(CN(C)C)C2(O)CCCCC2)cc1 (configuration not stated) [Venlafaxine hydrochloride] | 1.14
Cc1cccc(C)c1NC(=O)CN1CCCC1=O [Nefiracetam] | 1.05
CCCC[N+]1(C)[C@@H]2C[C@@H](OC(=O)[C@H](CO)c3ccccc3)C[C@H]1[C@@H]1O[C@@H]12 (some centres not stated) [Scopolamine butylbromide] | 1.07
S=C=NCc1ccccc1 [Benzyl isothiocyanate] | 1.13
Cn1cc(C2=C(c3cn(C4CCN(Cc5ccccn5)CC4)c4ccccc34)C(=O)NC2=O)c2ccccc21 [Enzastaurin] | 1.13
NC(=O)c1cc(N2CC2)c([N+](=O)[O-])cc1[N+](=O)[O-] [Tretazicar] | 0.88
C=CCN1CC[C@]23c4c5ccc(O)c4O[C@H]2C(=O)CC[C@@]3(O)[C@H]1C5 [Naloxone hydrochloride] | 0.947
C[C@@H]1CC[C@@]2(OC1)O[C@H]1C[C@H]3[C@@H]4CC=C5C[C@@H](O[C@@H]6O[C@H](CO)[C@@H](O[C@@H]7O[C@@H](C)[C@H](O)[C@@H](O)[C@H]7O)[C@H](O)[C@H]6O[C@@H]6O[C@@H](C)[C@H](O)[C@@H](O)[C@H]6O)CC[C@]5(C)[C@H]4CC[C@]3(C)[C@H]1[C@@H]2C [Dioscin] | 1.09
CC1(C)C(C(=O)Nc2ccc(S(=O)(=O)c3ccc(NC(=O)C4C(C)(C)C4(C)C)cc3)cc2)C1(C)C | 0.839
C[C@]12CC[C@@H]3c4ccc(OC(=O)N(CCCl)CCCl)cc4CC[C@H]3[C@@H]1CC[C@@H]2OP(=O)(O)O [Estramustine phosphate sodium] | 0.999
COc1cc2cc(c1Cl)N(C)C(=O)C[C@H](OC(=O)C(C)C)[C@]1(C)O[C@@H]1[C@H](C)[C@@H]1C[C@@](O)(NC(=O)O1)[C@H](OC)/C=C/C=C(\C)C2 [Ansamitocin P-3] | 0.233

SMILES | cell viability
COC(=O)[C@@H](N)CCCNC(=N)N[N+](=O)[O-] [L-NAME hydrochloride] | 1.11
C[N+]1([O-])[C@@H]2CC(OC(=O)[C@H](CO)c3ccccc3)C[C@H]1[C@@H]1O[C@@H]12 (some centres not stated) [Scopolamine N-oxide HBr] | 1.19
CN1Cc2c(ccc3c2OCO3)[C@@H]2[C@H]1c1cc3c(cc1C[C@@H]2O)OCO3 [Chelidonine] | 1.14
CC(=O)O[C@H]1C[C@@H]2CC[C@@H]3[C@H](CC[C@@]4(C)[C@H]3C[C@H]([N+]3(C)CCCCC3)[C@@H]4OC(C)=O)[C@@]2(C)C[C@@H]1[N+]1(C)CCCCC1 [Pancuronium bromide] | 1.03
Cc1ccc(/N=C/N(C)/C=N/c2ccc(C)cc2C)c(C)c1 [Amitraz] | 1.12
O=c1ccc2cc(O[C@@H]3O[C@H](CO)[C@@H](O)[C@H](O)[C@H]3O)c(O)cc2o1 [Esculin] | 0.909
CC(NC(C)(C)C)C(=O)c1cccc(Cl)c1 (configuration not stated) [Bupropion hydrochloride] | 0.997
CC(C)=CCC[C@](C)(O)[C@H]1CC[C@]2(C)[C@@H]1[C@H](O)C[C@@H]1[C@@]3(C)CC[C@H](O[C@@H]4O[C@H](CO)[C@@H](O)[C@H](O)[C@H]4O)C(C)(C)[C@@H]3CC[C@]12C [Ginsenoside Rh2] | 1.09 ± 0.14
NCC(CC(=O)O)c1ccc(Cl)cc1 (configuration not stated) [Baclofen] | 1.01
CC(=O)O[C@H]1CC[C@H]2[C@@H]3CCC4=CC(=O)CCC4=C3C=C[C@]12C [Trenbolone acetate] | 1.21
CC(C)[C@]12O[C@H]1[C@@H]1O[C@]13[C@]1(O[C@H]1C[C@H]1C4=C(CC[C@@]13C)C(=O)OC4)[C@@H]2O [Triptolide] | 0.121
NC[C@H](CC(=O)O)c1ccc(Cl)cc1 [(R)-baclofen] | 1.19
CC(C)(C)c1cc(C=C(C#N)C#N)cc(Br)c1O | 1.21
CC1=C2C(=O)[C@H]3[C@@H](CC=C4C[C@@H](O)CC[C@@]43C)[C@@H]2CC[C@]12O[C@@H]1C[C@H](C)CN[C@H]1[C@H]2C [Jervine] | 1.09
O=C1CC[C@@]2(O)[C@H]3Cc4ccc(O)c5c4[C@@]2(CCN3CC2CC2)[C@H]1O5 [Naltrexone hydrochloride] | 0.995
COc1ccc2c(c1O)-c1c(OC)c(OC)cc3c1[C@H](C2)N(C)CC3 [(+)-Isocorydine hydrochloride] | 1.02
Cn1c(CCCC(=O)O)nc2cc(N(CCCl)CCCl)ccc21 [Bendamustine hydrochloride] | 1.15
Cc1sc2c(c1C)C(c1ccc(Cl)cc1)=N[C@@H](CC(N)=O)c1nnc(C)n1-2 | 0.729
N[C@@H]1C[C@H]1c1ccccc1 [Tranylcypromine (2-PCPA) hydrochloride] | 1.04
CC1(C)C(=O)N(c2ccc(C#N)c(C(F)(F)F)c2)C(=O)N1CCCCO | 1.27
Clc1ccc(OC[C@H]2CCN2)cn1 [Tebanicline hydrochloride] | 1.12
COc1ccc(N(C(=O)Oc2c(C)cccc2C)c2ccnc(Nc3ccc(N4CCN(C)CC4)cc3)n2)c(OC)c1 | 0.952
COC1=C[C@@H]2[C@@H]3Cc4ccc(OC)c(O)c4[C@]2(CCN3C)CC1=O [Sinomenine hydrochloride] | 1.08
C/C(=C\c1csc(C)n1)[C@@H]1C[C@@H]2O[C@@H]2CCC[C@H](C)[C@H](O)[C@@H](C)C(=O)C(C)(C)[C@@H](O)CC(=O)O1 [Epothilone A] | 0.0991
